In general, TGI refers to the concentration giving total growth inhibition. A high value points to less potent growth arrest. Usually GI50 stands for the concentration giving 50% growth inhibition.

Where “and” joins values, the source holds several entries; their conditions need not be identical. Identical values can stand only once.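 Five concentrations, 48 hours, 96-well plates. GI50 is the concentration that inhibits growth by half. At the TGI there is no net growth.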

Among the data in PubChem BioAssay (NCI) are TGI and GI50 values, retold here.

For this assay, the system named is NCI-H322M lung. The experiment in a line: DTP human tumour cell line panel, 48 h.
For `CCOc1ccc(Nc2nc(N)nc(N)c2N=O)cc1`, the concentration for total growth inhibition (TGI) is above 100 µM.

Consider `CN(C)CCC(/C=C/c1ccccc1)=N\Nc1c(F)c(F)c(F)c(F)c1F`, for which the TGI is above 100 µM.

With `Oc1ccccc1/C=N/c1nc(-c2ccccc2)cs1`, the GI50 is above 100 µM and the TGI is above 100 µM.

Turning to `COc1cc2c(cc1OC)C(Sc1ccc(Cl)cc1)c1c(nc(N)c(C#N)c1N)O2` (stereo not drawn), the GI50 is 1.52 µM and the total growth inhibition concentration (TGI) is 2.89 µM.

In turn, `Cc1cc2nc3c(C(OC4OC(CO)C(O)C(O)C4O)C(O)CO)nn(-c4ccc(F)cc4)c3nc2cc1C` (stereo not drawn) came in with a TGI above 100 µM.

Compound `c1ccc2c(c1)n1nnnc1c1nnnn21` showed a TGI above 100 µM.

In turn, `CCOC(=O)CCC(NC(=O)c1ccc(NCc2ccc3nc(OC)c(OC)nc3c2)c2ccccc12)C(=O)OCC` (stereo not drawn) came in with a total growth inhibition concentration (TGI) above 100 µM.

`CSc1ccc2c(c1)N(CCCN(C)C)c1ccccc1S2`: the TGI came out at 27.1 µM.

Turning to `O=C([CH-]C(=O)c1ccccc1)c1ccccc1.[CH2-]C.[CH2-]C.[Tl+3]`, the GI50 is 22.7 µM and the concentration for total growth inhibition (TGI) is above 100 µM.

On to `O=c1c2ccccc2n2nnc3ccc(NCCNCCO)c1c32`, for which the total growth inhibition concentration (TGI) was determined as 6.13 µM.

In turn, `Cc1ccccc1NC(=O)C(=O)CC(=O)c1sc(-n2nc(-c3ccccc3)cc2-c2ccccc2)nc1C` displayed a TGI above 100 µM.

As for `COc1ccc([C@H]2c3[nH]c4ccccc4c3C[C@H]3C(=O)N(CCCCCCC(=O)NO)CC(=O)N23)cc1`, the GI50 was 3.16 µM and the concentration for total growth inhibition (TGI) was above 33.3 µM.

Compound `COC(=O)c1sc2c(Cl)c(Cl)sc2c1Cl` registered a total growth inhibition concentration (TGI) above 100 µM.

Turning to `COc1cc(C(=O)/C=C/c2c(C)n([O-])c3ccc(Cl)cc3[n+]2=O)cc(OC)c1OC`, the GI50 is 25.9 µM and the total growth inhibition concentration (TGI) was above 100 µM.

`C=C(/C=C/C=C(\CO)CCC=C(C)C)[C@H]1CCC2([C@H](CCCO)/C(=C(/C)C=O)CC[C@]2(C)O)[C@H]1O` (stereo partly drawn) returned a TGI above 100 µM.

On to `c1ccc(-c2nc3ccccc3[nH]2)c(OCCCCCOc2ccccc2-c2nc3ccccc3[nH]2)c1`, for which the GI50 was 12.2 µM and the total growth inhibition concentration (TGI) was 31.4 µM.

Turning to `O=C(/C=C/c1ccccn1)c1ccccc1`, the GI50 is 15.6 µM and the total growth inhibition concentration (TGI) worked out at 32.2 µM.

Regarding `CC(C)(C)c1cnc(CSc2cnc(NC(=O)C3CCNCC3)s2)o1`, the concentration for 50% growth inhibition (GI50) was 0.236 µM and 0.24 µM; the TGI was above 10 µM.

Turning to `COc1ccc(C2CC(c3cccc(Nc4ccncc4)c3)=NN2c2ccccc2)cc1` (stereo not drawn), the GI50 is 2.53 µM and the concentration for total growth inhibition (TGI) is 7.61 µM.

With `CCOC1OC(C)(C=C(C#N)C#N)CCC1C` (stereo not drawn), the concentration for total growth inhibition (TGI) was above 100 µM.

For the compound `O=[N+]([O-])C(/C=C(\Cl)[N+](=O)[O-])=C(Nc1ccccc1)Nc1ccccc1`, the TGI stood at 31.7 µM.

`O=C1Cc2c([nH]c3ccccc23)-c2cc(Br)ccc2N1` displayed a total growth inhibition concentration (TGI) above 100 µM.

In turn, `O=c1[nH]c2ccccc2c(=O)n1/N=C\c1ccccc1O` displayed a concentration for total growth inhibition (TGI) above 100 µM.

For the compound `C=C(C)C1CCC2(C)C1CCC1(C)C2CCC2C3(C)C4OC(OC4=O)C(C)(C)C3CCC21C` (stereo not drawn), the TGI was above 100 µM.

Turning to `COc1cc(C(=O)Nc2ccc(-c3nc4ccccc4[nH]3)cc2)cc(OC)c1OC`, the GI50 was 11.1 µM and the TGI turned out to be 27.1 µM.

`Cc1cc(Br)c(O)c(-c2cscn2)c1` registered a TGI of 90 µM.

The compound `CC1(c2ccc(Cl)cc2)c2ccccc2C(=O)N1CCCN1C(=O)c2ccccc2C1=O` (stereo not drawn) gave a concentration for total growth inhibition (TGI) above 100 µM.

The compound `Clc1ccc(C2=CC(c3ccccc3)N3C(=N[C@H]4CCCC[C@@H]43)N2)cc1` (stereo partly drawn) had a total growth inhibition concentration (TGI) of 17.5 µM.

Compound `COc1ccc(C2C(C(=O)O)=C(COC(C)=O)Oc3cc4c(cc32)OCO4)c(OC)c1` (stereo not drawn) came in with a TGI above 100 µM.

Compound `N#CC(c1cc(Cl)ncn1)c1nc2cc(C(F)(F)F)ccc2s1` (stereo not drawn) yielded a total growth inhibition concentration (TGI) of 20.1 µM.

Take `CCn1c(-c2cc3ccccc3cc2OC(C)=O)n[nH]c1=S`: the TGI was above 100 µM.

`c1ccc2[nH]c(-c3cscn3)nc2c1` came in with a TGI above 100 µM.

`COc1ccc2c(c1)CCC1C2CCC2(C)C(NC(=O)CCCCC3CCSS3)CCC12` (stereo not drawn): the GI50 is 67.8 µM and the TGI is above 100 µM.

As to `COC1=C(OC)C(=O)C(Cc2c(-c3ccccc3)nc3sc(Cl)cn23)=C(C)C1=O`, the concentration for total growth inhibition (TGI) amounted to 56.9 µM.

As to `Cc1cc(N(CCC#N)CCC#N)ccc1/C=C1N=C(/C=C\c2ccccc2)N(c2ccc(C(=O)O)cc2)C\1=O`, the total growth inhibition concentration (TGI) is above 100 µM.

As to `COc1ccc(/C(C#N)=C2/O/C(=N/N)C(c3ccc(OC)c(OC)c3)C2=O)cc1OC` (stereo not drawn), the TGI is above 100 µM.

In turn, `CN=C1C=C(/N=C2/C=C(N/C(=C\C#N)C(C)(C)O)OC2(C)C)OC1(C)C` came in with a total growth inhibition concentration (TGI) above 100 µM.

Turning to `CC(=O)Nc1ccc2c(c1)[nH]c(=O)c1cc(Cl)ccc12`, the TGI is above 100 µM.

As to `CC1(O)CC23CC(O)C4(O)C(CC(O)C4(C)C)C(C)(O)C2CCC1C3O` (stereo not drawn), the total growth inhibition concentration (TGI) is above 100 µM.

Take `COc1cc([N+](=O)[O-])c(S(=O)(=O)O)cc1-[n+]1nc(C(=O)Nc2ccccc2)nn1-c1ccc([N+](=O)[O-])c(S(=O)(=O)[O-])c1`: the TGI was above 100 µM.

`COC1CCC(OS(C)(=O)=O)C(C)O1` (stereo not drawn): the TGI was above 10 µM.

`COc1cc([C@H]2c3cc4c(cc3[C@H](NCc3ccc(F)cc3)C3COC(=O)[C@H]32)OCO4)cc(OC)c1O` (stereo partly drawn) registered a total growth inhibition concentration (TGI) above 100 µM.
